Source: the supplement of paper PMC11417369
± gives the standard deviation of the averaged measurements. The list shows a part of the results.

What follows are sequences tested on PfAP2-EXP AP2 domain (GST-tagged) (assay: gcPBM binding intensity (ln(normalized median fluorescence intensity)); higher = stronger DNA binding).
Summary of the method: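 The highest Masliner-normalised natural-log median intensity across replicate spots of either probe orientation is reported as binding intensity. GST-tagged P. falciparum DNA-binding domains expressed in E. coli were applied for 1 h to an Agilent 4 × 180k array of primer-extended double-stranded 36-bp intergenic genomic probes plus negative controls, and bound protein was detected with Alexa488 anti-GST antibody and scanned at 488 nm.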

| Sequence | gcPBM binding intensity (ln) |
| --- | --- |
| TGTTCTTTGTTCAGCGCATGTAAAATAAAATAAAAT [TGCATGCA_site629] | 9.04 ± 0.77 |
| TTTTTTTTTGAATACAGTACACAAGTGTTAAGTTTA [XGTACX_site7069] | 8.26 ± 0.39 |
| TATGAATATCTATACACACACATATATATACCCACT [CACACA_site4963] | 8.73 ± 0.67 |
| GATTGATTATATGTGTGTACTTATATGTTAAAAAAA [XGTACX_site4784] | 8.74 ± 0.18 |
| TTTATTCTTGAGTATTGTACATATGTGTTTGTATAT [XGTACX_site5706] | 8.57 ± 0.46 |
| AAAGGTGTCATATATGCACACAAAAGTAACACGCAC [CACACA_site8051] | 9.27 ± 0.41 |
| TATTTGAAAACATAGGTGCACATTATTTTATAATCT [GTGCAC_site9947] | 9.13 ± 0.65 |
| GAAAGAATAAAATTTACACACATATAAATATACATA [CACACA_site7125] | 8.27 ± 0.41 |
| AGGAGGATGCATATGGCACACATTATGAAACTGTCG [CACACA_site299] | 8.92 ± 0.71 |
| TATATATATATATGTAGTACTCAATATTGTAGATTA [XGTACX_site3856] | 10.1 ± 0.2 |
| AAATATATGTATATATGTACATATGTGTGCTATCAT [XGTACX_site1604] | 8.71 ± 0.28 |
| TAATTTTTTTTTAATTGTACATGTGAATATATTTCA [XGTACX_site4115] | 8.4 ± 0.42 |
| GTTTACATTTTAAGAAGTACAAAATTTATGGTTAAA [XGTACX_site450] | 8.59 ± 0.45 |
| GAAAAAACGAAAAAAATACACACCTGAAAAGATATG [CACACA_site887] | 8.62 ± 0.43 |
| ATACATACAAAAATTTGTACATATTTCCAATAATGT [XGTACX_site2658] | 8.41 ± 0.35 |
| AAATTTCCATTTGGGTGTACATGTGAAACTACAAAG [XGTACX_site208] | 8.85 ± 0.39 |
| GCCATAATATGACATACACACACAAAAAAAAAAAAA [CACACA_site8353] | 8.45 ± 0.28 |
| AAACAATTGAATAAATGTACAGATACATTTTTTTAA [XGTACX_site5386] | 8.23 ± 0.36 |
| TATTTATCTATTTTGTTATATAATAAAATAAAATAA [CACACA_negctrl_site281] | 8.13 ± 0.37 |

| Sequence | gcPBM binding intensity (ln) |
| --- | --- |
| AAAAATAAACAAAATTGTACACATTACATACATATA [XGTACX_site966] | 8.59 ± 0.36 |
| AGGTGCAAAAATAAAACATGCAAAAATAAAAATGAA [TGCATGCA_site502] | 9.15 ± 0.44 |
| TAATAAAAAATATATACACACAAATAAATAAATAAA [CACACA_site4037] | 8.75 ± 0.62 |
| AATAGTCGTGTGCATACACACCTTAACTATAATATA [CACACA_site6636] | 8.46 ± 0.29 |
| AATAATTAAATAAGAGTGCATGAAACAGGAAATTTC | 9.1 ± 0.33 |
| TTAGCAACTATTACTACACACATTTTTATATAACTT [CACACA_site6762] | 8.58 ± 0.48 |
| TATTGTTAAAATGAATAATTAAAACAGTAATGAATA [XGTACX_negctrl_site170] | 8.37 ± 0.35 |
| AAGAAATAAAGCAAAACATGCACTCGAAAATGTTTT [TGCATGCA_site1014] | 8.74 ± 0.33 |
| CGCATGCAATGTTAATGTACATATATATATATATGT [XGTACX_site3316] | 9.395 ± 0.049 |
| ATGTCTAATTTTGATGCACACTTTTGTGCAATTAAA [CACACA_site5589] | 8.45 ± 0.2 |
| TATATATGTTTTTATGTACACACTTTTAACCTAAGA [CACACA_site1149] | 8.71 ± 0.36 |
| ATTTATTGACTATTTACACACATATTTATTAAAATA [CACACA_site4980] | 8.79 ± 0.42 |
| TACGCTCCCAGACACACACACACACCGATATAATAT [CACACA_site8098] | 8.81 ± 0.49 |
| TATTATATTATGTGATGTACATATTTATATAGGCCC [XGTACX_site4746] | 8.68 ± 0.5 |
| TATTACATACCTTATTGTACAAATTATATATTAAAG [XGTACX_site7334] | 8.62 ± 0.37 |
| ATTCAGTTATATAATACACACATATATTGACATTAT [CACACA_site2723] | 8.56 ± 0.43 |
| ACAGTATCTGGTAGCTGTACGAGTCGTAGAGAGTAG [XGTACX_site2041] | 9.07 ± 0.39 |
| TAGTATAATATGAACACACACACACGCACAAAAAAA [CACACA_site7035] | 8.89 ± 0.51 |
| TGTAAGCACATACAAACACACAACATTATTTTTATC [CACACA_site2186] | 8.66 ± 0.4 |

| Sequence | gcPBM binding intensity (ln) |
| --- | --- |
| ATCGTTATATAAAAATGTACTTATAAATTGTATACA [XGTACX_site6664] | 8.52 ± 0.38 |
| CAACATTTGATAAACACACAGAAGTATAAATATATA [CACACA_site2365] | 8.61 ± 0.29 |
| AAAGGAAAAATCCAAGTGCATTATTATTTTCACAAA [GTGCAC_site9995] | 8.55 ± 0.16 |
| TTTTTTTTTTTTTGATGTACAATTAATATTATAAAA [XGTACX_site6969] | 8.49 ± 0.48 |
| CATTTTAAAGAAAATACACACAAAAATAGATATATA [CACACA_site6773] | 8.66 ± 0.38 |
| AGTAATAAATAATTTACACACATATTATATCATCAC [CACACA_site1890] | 8.56 ± 0.27 |
| ATTTCTTTTTTATTGAGTACATATGACCATGTTCAA [XGTACX_site5365] | 8.95 ± 0.29 |
| GAAAAAAATGAAATTAGTACTTATCTTAAATTTTTA [XGTACX_site1018] | 7.96 ± 0.33 |
| AAAAATATATAATAAAGTACACATAAATGAATAAAT [XGTACX_site329] | 8.9 ± 0.12 |
| TGATAACCAAAAAGGGGTACATACACAAAAAAATAC [XGTACX_site1254] | 9.12 ± 0.49 |
| AACAACATTTGATAAACACACAGAAGTATAAATATA [CACACA_site5327] | 8.72 ± 0.42 |
| TACTTATTAGACTATTGTACATACATTATTAATATT [XGTACX_site7849] | 8.73 ± 0.31 |
| TAAAAAATTAAGCAACGTACAAATGAAAAGTATAAT [XGTACX_site1058] | 9.2 ± 0.5 |
| TAACAATAACTTTATACACACATAATATAAATATAT [CACACA_site7635] | 8.23 ± 0.56 |
| TAAAATTTTAACAAAAAAAAAAAAAAAAAAAGAAAA [CACACA_negctrl_site1335] | 8.15 ± 0.6 |
| ATAACAAAATAATAATGTACGTATAAATATAATTTA [XGTACX_site6049] | 8.57 ± 0.4 |
| ATAAAGAAAAATAGAAGTACATATATGCATGTTAAT [XGTACX_site4480] | 9.14 ± 0.5 |
| AACAATAAAAATAATTGTACAAGTCTAAAAAAAATT [XGTACX_site20] | 8.51 ± 0.31 |
| TACGTATTATAAATATGTACATATAATATGTATATA [XGTACX_site468] | 8.22 ± 0.23 |
